From the supplement of paper PMC9151546
Most values come without repeats; read them as rough.

Legend:
CHO-K1 [1] = test: hypodiploid nuclei frequency (% of nucleated events); higher = more hypodiploid events (aneugenic)
Method: (§1)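 Flow-cytometric in vitro micronucleus assay (Litron MicroFlow) in CHO-K1 cells in 96-well plates, 19 concentrations (4.5-200 µM, n=1 per concentration). Without S9, cells were exposed for 24 h and sampled at 48 h. With Aroclor 1254-induced rat liver S9, cells were exposed for 3-4 h and sampled at 27-28 h. Read-outs are %MN and %hypodiploid nuclei relative to nucleated events, and relative survival as the nuclei-to-bead ratio versus the 1% DMSO vehicle control (x100).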

CHO-K1 [2] = test: relative survival (nuclei to bead ratio vs DMSO control) (% of vehicle control); higher = more surviving cells
Method: as §1

CHO-K1 [3] = test: micronucleus frequency (% of nucleated events); higher = more micronuclei (genotoxic)
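Wherever hypodiploid nuclei frequency (% of nucleated events) is given: hypodiploid nuclei gated on a flow cytometer with 488 nm excitation after SYTOX Green staining, cultures at 37 °C, positive controls vinblastine without S9 and cyclophosphamide with S9.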
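Wherever micronucleus frequency (% of nucleated events) is given: cells lysed with nuclei stained by SYTOX Green, then micronucleus-gated events counted against nucleated events by flow cytometry with 488 nm excitation.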
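Wherever relative survival (nuclei to bead ratio vs DMSO control) is given: Lysed-cell nuclei stained with SYTOX Green and counted against counting beads by flow cytometry at 488 nm excitation, with vinblastine (no S9) and cyclophosphamide (plus S9) as positive controls.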

CC(=O)CC(C)(C)O [Diacetone alcohol]
Settings	hypodiploid nuclei frequency, CHO-K1 [1] [%]	micronucleus frequency, CHO-K1 [3] [%]	relative survival, CHO-K1 [2]
concentration: 4.5 (µM), S9 metabolic activation: with S9, exposure time: 3-4 hours	0.3	1.42	152
concentration: 4.5 (µM), S9 metabolic activation: without S9, exposure time: 24 hours	0.94	1.22	78.1
concentration: 5.63 (µM), S9 metabolic activation: with S9, exposure time: 3-4 hours	0.3	1.94	119
concentration: 5.63 (µM), S9 metabolic activation: without S9, exposure time: 24 hours	0.8	1.82	86.9
concentration: 7.04 (µM), S9 metabolic activation: with S9, exposure time: 3-4 hours	0.42	1.04	146
concentration: 7.04 (µM), S9 metabolic activation: without S9, exposure time: 24 hours	0.52	1.42	77.9
concentration: 8.8 (µM), S9 metabolic activation: with S9, exposure time: 3-4 hours	0.24	1.58	142
concentration: 8.8 (µM), S9 metabolic activation: without S9, exposure time: 24 hours	0.76	1.26	104
concentration: 11 (µM), S9 metabolic activation: with S9, exposure time: 3-4 hours	0.26	1.18	157
concentration: 11 (µM), S9 metabolic activation: without S9, exposure time: 24 hours	0.74	1.34	81.3
concentration: 13.7 (µM), S9 metabolic activation: with S9, exposure time: 3-4 hours	0.32	1.02	145
concentration: 13.7 (µM), S9 metabolic activation: without S9, exposure time: 24 hours	0.68	1.76	84.9
concentration: 17.2 (µM), S9 metabolic activation: with S9, exposure time: 3-4 hours	0.16	1.04	134
concentration: 17.2 (µM), S9 metabolic activation: without S9, exposure time: 24 hours	0.74	1.12	88.4
concentration: 21.5 (µM), S9 metabolic activation: with S9, exposure time: 3-4 hours	0.22	2.14	136
concentration: 21.5 (µM), S9 metabolic activation: without S9, exposure time: 24 hours	0.82	1.22	90.9
concentration: 26.8 (µM), S9 metabolic activation: with S9, exposure time: 3-4 hours	0.28	1.5	177
concentration: 26.8 (µM), S9 metabolic activation: without S9, exposure time: 24 hours	0.62	1.14	78.8
concentration: 33.6 (µM), S9 metabolic activation: with S9, exposure time: 3-4 hours	0.3	1.74	156
concentration: 33.6 (µM), S9 metabolic activation: without S9, exposure time: 24 hours	0.7	1.16	95.3
concentration: 41.9 (µM), S9 metabolic activation: with S9, exposure time: 3-4 hours	0.36	2.4	185
concentration: 41.9 (µM), S9 metabolic activation: without S9, exposure time: 24 hours	0.7	1.32	102
concentration: 52.4 (µM), S9 metabolic activation: with S9, exposure time: 3-4 hours	0.16	2.12	139
concentration: 52.4 (µM), S9 metabolic activation: without S9, exposure time: 24 hours	0.74	1.58	111
concentration: 65.5 (µM), S9 metabolic activation: with S9, exposure time: 3-4 hours	0.18	1.78	172
concentration: 65.5 (µM), S9 metabolic activation: without S9, exposure time: 24 hours	0.82	1.68	123
concentration: 81.9 (µM), S9 metabolic activation: with S9, exposure time: 3-4 hours	0.26	1.72	191
concentration: 81.9 (µM), S9 metabolic activation: without S9, exposure time: 24 hours	0.88	2.02	116
concentration: 102 (µM), S9 metabolic activation: with S9, exposure time: 3-4 hours	0.24	1.54	191
concentration: 102 (µM), S9 metabolic activation: without S9, exposure time: 24 hours	0.94	1.28	110
concentration: 128 (µM), S9 metabolic activation: with S9, exposure time: 3-4 hours	0.24	2.46	171
concentration: 128 (µM), S9 metabolic activation: without S9, exposure time: 24 hours	0.94	1.9	102
concentration: 160 (µM), S9 metabolic activation: with S9, exposure time: 3-4 hours	0.24	1.74	163
concentration: 160 (µM), S9 metabolic activation: without S9, exposure time: 24 hours	0.7	1.64	108
concentration: 200 (µM), S9 metabolic activation: with S9, exposure time: 3-4 hours	0.28	1.9	161
concentration: 200 (µM), S9 metabolic activation: without S9, exposure time: 24 hours	1.14	2	103
